The campaign covered roughly 94,000 compounds. About 6,200 (6.6%) were called active. The inconclusive results got no clear call from the source; some entries with a clear call stand among them for comparison. The call rests on the fitted dose curve; in most records, active means well fitted inhibition curve with a large enough effect; inconclusive means small, poorly fitted or top-dose-only effect; inactive means flat fitted curve, though single readings scatter. Potencies of inconclusive entries are doubtful fits and often do not repeat.
Test: Cytotoxic Profiling in HEK 293 Cell Line of Diverse Libraries Using Quantitative High-Throughput Screening; further: nearly all actives have a fitted effect of over 60% in size
Conditions: HEK 293 viability, ATP luminescence (CellTiter-Glo), 48-72 h; activity change, negative = cytotoxicity: at 115 µM (top of the series) unless noted; series mostly up to 115 µM
Procedure, shortened: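 HEK 293 cells seeded at 250 cells/well were exposed to compound for 48 or 72 hr at 37 degree Celsius. Viability taken as ATP content by CellTiter-Glo luminescence.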
On the % scale 0 is the no-effect control and ±100 the full control effect; potency means the concentration at half of the fitted maximal effect; tags describe the fitted curve by direction and shape.

SMILES | Potency | activity change, negative = cytotoxicity
O=C(NC1CCCCC1)N[C@H]1CO[C@H]2[C@@H]1OC[C@@H]2n1cc(-c2ccccc2)nn1 | inconclusive: 126 µM [inhibitor, single point] | 
COc1cccc(CNC2CCCc3nc(-c4cccnc4)ncc32)c1 (stereo not given) | inconclusive: 89.1 µM [inhibitor, single point] | 
Cc1cc(C)c(CN2CCC(n3cc(C(C)(C)N)nn3)CC2)c(C)c1 | inconclusive: 15.8 µM [inhibitor, full curve, poor fit] | 
CC(C)CCN(C)Cc1ccc(F)cc1 | inconclusive: 355 µM [inhibitor, partial curve, poor fit] | 
O=C(NCCc1noc(-c2ccncc2)n1)NC1CCCCC1 |  | inactive: -4.34%
CNc1ccc(OC2CCN(C(=O)NCCc3ccccc3)CC2)nc1 | inconclusive: 89.1 µM [inhibitor, single point] | 
Cc1nccc(N2CCC(COc3ccc4c(cnn4CC[S+](C)(=O)[O-])c3)CC2)n1 | inconclusive: 44.7 µM [inhibitor, partial curve, poor fit] | 
CC(=O)N1CCN(C(=O)C[C@@H]2C[C@@H](C(C)C)[C@H](CNC(=O)Nc3cccc(F)c3)C=C2C)CC1 | inconclusive: 50.1 µM [inhibitor, partial curve, poor fit] | 
COc1ccc2cc(CN3CCCC(C#N)C3)c(-c3cccs3)nc2c1 (stereo not given) | inconclusive: 39.8 µM [inhibitor, partial curve, poor fit] | 
CN1C(=O)Cc2ccccc2C1C(=O)N1CCN(c2ccc(Cl)cc2)CC1 (stereo not given) | inconclusive: 50.1 µM [inhibitor, partial curve, poor fit] | 
Cc1noc(C)c1-c1cnc(Nc2ccc(CN3CCN(C)CC3)cc2)c2c1CCO2 | inconclusive: 50.1 µM [inhibitor, partial curve, poor fit] | 
CCN(Cc1ccncc1)C(=O)c1coc(COc2cccc(C(F)(F)F)c2)n1 | inconclusive: 35.5 µM [inhibitor, partial curve, poor fit] | 
O=C(c1ccncc1)N1CCCN(CCc2ccccc2)c2ccccc21 | inconclusive: 31.6 µM [inhibitor, partial curve, poor fit] | 
CC1(C(=O)N2CCOCC2)CN(Cc2ccccc2)Cc2ccc(Nc3ccccc3)nc21 (stereo not given) | inconclusive: 44.7 µM [inhibitor, partial curve] | 
COc1ccc(CN2C=C(C(=O)OCc3noc(-c4cccc(OC)c4)n3)C(C)=NS2(=O)=O)cc1 | inconclusive: 35.5 µM [inhibitor, partial curve, poor fit] | 
